A lower IC50 marks a more sensitive line; fits outside the tested doses are given as limits. AUC, from the same fit, is the share of area under the viability curve across the 256-fold dose range: 1 means no effect, lower means more sensitive. Where the top dose is marked as inferred, it was calculated from the reported fits. For some assays here: Where an entry number is given, a second screen of the drug exists; the two often differ.
How the values were obtained:
[1] = compound: O=c1[nH]c2ccccc2n1C1CCN(Cc2ccc(-c3[nH]c4cc5ncnc5cc4nc3-c3ccccc3)cc2)CC1 [AKT inhibitor VIII]; assay: Viability of human cancer cell lines after 72 h of drug (GDSC screen); conditions: top dose inferred
Protocol: (§1)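 Human cancer cell lines in 384-well plates, medium with 10% serum, drug for 72 h over a 256-fold dose range (nine 2-fold or five 4-fold steps up to the top dose). Adherent lines were fixed and stained with the nucleic acid dye Syto60, suspension lines read with resazurin; signal relative to control wells, capped at 0 and 100%. One two-parameter sigmoid per drug and line, fitted in a mixed model over all curves with the slope shared within a line.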

[2] = compound: NC(=O)c1ncn([C@@H]2O[C@H](CO)[C@@H](O)[C@H]2O)c1N [AICAR]; assay: as above; conditions: top dose 2000 µM; top dose inferred
Protocol: as §1

[3] = top dose 2.56 µM, screen: GDSC drug entry 171
[4] = top dose 10.24 µM, screen: GDSC drug entry 228

| Cell Line | AUC [1, 3] | IC50 [1, 3] [µM] | AUC [1, 4] | IC50 [1, 4] [µM] | AUC [2] | IC50 [2] [µM] |
| --- | --- | --- | --- | --- | --- | --- |
| KNS-42 (glioma, adherent) | 0.938 | > 2.56 | 0.93 | > 10.2 | 0.896 | > 2000 |
| CHSA8926 (chondrosarcoma, adherent) | 0.978 | > 2.56 | 0.954 | > 10.2 | 0.943 | > 2000 |
| NB(TU)1-10 (neuroblastoma, adherent) | 0.977 | > 2.56 | 0.982 | > 10.2 | 0.959 | > 2000 |
| ASH-3 (thyroid, adherent) | 0.937 | > 2.56 | 0.988 | > 10.2 | 0.91 | > 2000 |
| MEL-JUSO (melanoma, adherent) | 0.861 | > 2.56 | 0.854 | 9.67 | 0.97 | > 2000 |
| KYSE-410 (oesophagus, adherent) | 0.97 | > 2.56 | 0.929 | > 10.2 | 0.881 | > 2000 |
| LB2518-MEL (melanoma, adherent) | 0.985 | > 2.56 | 0.929 | > 10.2 | 0.925 | > 2000 |
| DK-MG (glioma, adherent) | 0.868 | > 2.56 | 0.832 | > 10.2 | 0.965 | > 2000 |
| HCC-827 (lung adenocarcinoma, adherent) | 0.94 | > 2.56 | 0.937 | > 10.2 | 0.854 | 1960 |
| JSC-1 (B-cell lymphoma, suspension) | 0.944 | > 2.56 | 0.723 | 2.73 | 0.837 | 1320 |
| SK-PN-DW (Ewing sarcoma, adherent) | 0.917 | > 2.56 | 0.878 | > 10.2 | 0.682 | 414 |
| NCI-H2110 (non-small cell lung carcinoma, adherent) | 0.795 | 1.22 | 0.901 | > 10.2 | 0.985 | > 2000 |
| HSC-2 (head and neck, adherent) | 0.939 | > 2.56 | 0.988 | > 10.2 | 0.812 | 971 |
| Hs-578-T (breast, adherent) | 0.972 | > 2.56 | 0.987 | > 10.2 | 0.958 | > 2000 |
| P31-FUJ (acute myeloid leukaemia, suspension) | 0.996 | > 2.56 | 0.979 | > 10.2 | 0.809 | 754 |
| Calu-3 (lung adenocarcinoma, adherent) | 0.844 | > 2.56 | 0.831 | 8.93 | 0.863 | > 2000 |
| NCI-H526 (small cell lung carcinoma, suspension) | 0.971 | > 2.56 | 0.834 | 6.29 | 0.651 | 321 |
| NCI-SNU-1 (stomach, suspension) | 0.966 | > 2.56 | 0.776 | 4.24 | 0.893 | > 2000 |
| SNU-407 (large intestine, adherent) | – | – | 0.762 | 4.25 | 0.947 | > 2000 |
| KARPAS-620 (haematopoietic neoplasm, suspension) | 0.96 | > 2.56 | 0.581 | 1.03 | 0.852 | 1220 |
| BT-474 (breast, adherent) | 0.944 | > 2.56 | 0.559 | 0.943 | 0.955 | > 2000 |
| H3118 (head and neck, adherent) | 0.806 | 1.45 | 0.86 | 9.96 | 0.692 | 455 |
| YH-13 (glioma, adherent) | – | – | 0.892 | > 10.2 | 0.961 | > 2000 |
| OVCAR-8 (ovary, adherent) | 0.985 | > 2.56 | 0.902 | > 10.2 | 0.861 | 1420 |
| LU-65 (large cell lung carcinoma, suspension) | 0.979 | > 2.56 | 0.775 | 4.79 | 0.964 | > 2000 |
| SNU-C1 (large intestine, suspension) | 0.902 | > 2.56 | 0.807 | 8.62 | 0.812 | 1780 |

| Cell Line | AUC [1, 3] | IC50 [1, 3] [µM] | AUC [1, 4] | IC50 [1, 4] [µM] | AUC [2] | IC50 [2] [µM] |
| --- | --- | --- | --- | --- | --- | --- |
| HCC1569 (breast, adherent) | 0.842 | > 2.56 | 0.613 | 1.45 | 0.787 | 1200 |
| NCI-H28 (mesothelioma, adherent) | 0.96 | > 2.56 | 0.954 | > 10.2 | 0.797 | 1310 |
| LS-180 (large intestine, adherent) | 0.881 | > 2.56 | 0.944 | > 10.2 | 0.916 | > 2000 |
| OCUM-1 (stomach, adherent) | 0.976 | > 2.56 | 0.987 | > 10.2 | 0.953 | > 2000 |
| ABC-1 (lung adenocarcinoma, adherent) | 0.913 | > 2.56 | 0.933 | > 10.2 | 0.956 | > 2000 |
| FU97 (stomach, adherent) | 0.823 | 1.57 | 0.818 | 5.97 | 0.962 | > 2000 |
| RCC-MF (kidney, adherent) | – | – | 0.886 | > 10.2 | 0.93 | > 2000 |
| BE2-M17 (neuroblastoma, adherent) | 0.986 | > 2.56 | 0.968 | > 10.2 | 0.842 | 1460 |
| HCC70 (breast, adherent) | 0.741 | 0.77 | 0.624 | 1.4 | 0.752 | 652 |
| MHH-NB-11 (neuroblastoma, adherent) | 0.981 | > 2.56 | 0.969 | > 10.2 | 0.731 | 611 |
| SK-N-AS (neuroblastoma, adherent) | 0.975 | > 2.56 | 0.761 | 4.16 | 0.84 | 1700 |
| HuO-3N1 (osteosarcoma, adherent) | 0.922 | > 2.56 | 0.904 | > 10.2 | 0.826 | 1770 |
| SW626 (ovary, adherent) | 0.921 | > 2.56 | 0.836 | 8.62 | 0.977 | > 2000 |
| NCI-H1395 (lung adenocarcinoma, adherent) | 0.973 | > 2.56 | 0.79 | 6.31 | 0.972 | > 2000 |
| EW-24 (Ewing sarcoma, semi-adherent) | 0.991 | > 2.56 | 0.912 | > 10.2 | 0.927 | > 2000 |
| EJM (lymphoid neoplasm, semi-adherent) | 0.982 | > 2.56 | 0.851 | 5.99 | 0.809 | 846 |
| NCI-H1563 (lung adenocarcinoma, adherent) | 0.743 | 0.923 | 0.564 | 0.987 | 0.985 | > 2000 |
| HT-1080 (fibrosarcoma, adherent) | 0.986 | > 2.56 | 0.989 | > 10.2 | 0.872 | 1560 |
| NCI-H2009 (lung adenocarcinoma, adherent) | 0.891 | > 2.56 | 0.987 | > 10.2 | 0.782 | 888 |
| CAL-27 (head and neck, adherent) | 0.94 | > 2.56 | 0.94 | > 10.2 | 0.76 | 715 |
| OCI-AML2 (acute myeloid leukaemia, suspension) | 0.982 | > 2.56 | 0.899 | 7.1 | 0.674 | 332 |
| NCI-H2227 (small cell lung carcinoma, semi-adherent) | 0.986 | > 2.56 | 0.881 | > 10.2 | 0.908 | > 2000 |
| HD-MY-Z (Hodgkin lymphoma, adherent) | 0.986 | > 2.56 | 0.764 | 3.73 | 0.867 | 1820 |
| G-361 (melanoma, adherent) | 0.981 | > 2.56 | 0.902 | > 10.2 | 0.972 | > 2000 |
| ARH-77 (myeloma, suspension) | 0.966 | > 2.56 | 0.734 | 2.88 | 0.889 | > 2000 |
| HCC-56 (large intestine, adherent) | 0.945 | > 2.56 | 0.698 | 2.35 | 0.781 | 850 |

| Cell Line | AUC [1, 3] | IC50 [1, 3] [µM] | AUC [1, 4] | IC50 [1, 4] [µM] | AUC [2] | IC50 [2] [µM] |
| --- | --- | --- | --- | --- | --- | --- |
| PANC-08-13 (pancreas, adherent) | 0.961 | > 2.56 | 0.895 | > 10.2 | 0.798 | 1270 |
| Ca9-22 (head and neck, adherent) | 0.906 | > 2.56 | 0.97 | > 10.2 | 0.835 | 1180 |
| MES-SA (uterus, adherent) | 0.892 | 2.24 | 0.852 | 6.19 | 0.922 | > 2000 |
| PC-14 (lung adenocarcinoma, adherent) | 0.986 | > 2.56 | 0.784 | 3.85 | 0.691 | 400 |
| Hs633T (fibrosarcoma, adherent) | 0.975 | > 2.56 | 0.942 | > 10.2 | 0.969 | > 2000 |
| OVCA433 (ovary, adherent) | – | – | 0.918 | > 10.2 | 0.907 | > 2000 |
| OS-RC-2 (kidney, adherent) | 0.887 | > 2.56 | 0.862 | > 10.2 | 0.849 | > 2000 |
| GA-10 (Burkitt lymphoma, suspension) | 0.962 | > 2.56 | – | – | 0.805 | 829 |
| KP-N-YN (neuroblastoma, adherent) | 0.985 | > 2.56 | 0.971 | > 10.2 | 0.845 | 1660 |
| MHH-PREB-1 (B-cell leukaemia, suspension) | 0.97 | > 2.56 | 0.764 | 3.35 | 0.746 | 580 |
| STS-0421 (soft tissue, adherent) | 0.95 | > 2.56 | 0.848 | 9.68 | 0.782 | 986 |
| LOUCY (T-cell lymphoblastic leukaemia, suspension) | 0.964 | > 2.56 | 0.34 | 0.252 | 0.873 | 1340 |
| KMRC-20 (kidney, adherent) | 0.971 | > 2.56 | 0.988 | > 10.2 | 0.932 | > 2000 |
| NCI-H358 (lung adenocarcinoma, adherent) | 0.893 | > 2.56 | 0.812 | 6.28 | 0.872 | > 2000 |
| MOG-G-UVW (glioma, adherent) | 0.915 | > 2.56 | 0.822 | 5.79 | 0.902 | > 2000 |
| NCI-H810 (large cell lung carcinoma, adherent) | 0.977 | > 2.56 | 0.91 | > 10.2 | 0.948 | > 2000 |
| SK-ES-1 (Ewing sarcoma, semi-adherent) | 0.967 | > 2.56 | 0.823 | 6.58 | 0.713 | 521 |
| IGR-37 (melanoma, adherent) | 0.986 | > 2.56 | 0.983 | > 10.2 | 0.967 | > 2000 |
| HuO9 (osteosarcoma, adherent) | 0.808 | 1.5 | 0.716 | 2.83 | 0.806 | 1160 |
| HGC-27 (stomach, adherent) | 0.512 | 0.171 | 0.583 | 1.04 | 0.848 | 1160 |
| HCC-78 (lung adenocarcinoma, adherent) | 0.971 | > 2.56 | 0.832 | 8.15 | 0.827 | 1520 |
| MOG-G-CCM (glioma, adherent) | 0.958 | > 2.56 | 0.889 | > 10.2 | 0.913 | > 2000 |
| ES1 (Ewing sarcoma, adherent) | 0.944 | > 2.56 | 0.5 | 0.639 | 0.89 | > 2000 |
| PANC-04-03 (pancreas, adherent) | 0.951 | > 2.56 | 0.923 | > 10.2 | 0.818 | > 2000 |

From the supplement of paper PMC4967469
